Laboratory results as given in ChEMBL document CHEMBL4888484, “Replenishing the malaria drug discovery pipeline: Screening and hit evaluation of the MMV Hit Generation Library 1 (HGL1) against asexual blood stage Plasmodium falciparum ,using a nano luciferase reporter read-out” (2022).
Out of some 150,000 compounds screened, about 540 (0.36%) showed an effect of 50% or more. Some of the results follow.

What follows are compounds tested on Plasmodium falciparum (assay: Primary screen in NF54 nanoGlo assay, in single point, at 2uM, 72h; a lower Z score goes with more inhibition). Conditions: timepoint 72 hour.
Assay type: functional, Erythrocyte

| SMILES | % Inhibition | Z score |
| --- | --- | --- |
| CCn1nccc1[C@H]1OCC[C@@H]1NC(=O)c1ccnc2[nH]c(C)nc12 | -9% | 1.29 |
| CC1CCC(NC(=O)CN(C)S(=O)(=O)c2ccc3c(c2)C[C@H](C)N3C(=O)C2CCC2)CC1 (stereo partly specified) | -2% | 0.27 |
| CCn1c([C@H]2CCCN(Cc3nc(C)c[nH]3)C2)nn(CCN(C)C)c1=O | -2% | 0.24 |
| Cc1cc(=O)c2cc(C(=O)NCc3ccccn3)ccc2[nH]1 | 4% | -0.52 |
| Cc1nc2c(OC(=O)OC(C)(C)C)cccc2o1 | -4% | 0.52 |
| Cc1ccc2nc(CN3CCCN4CCC[C@H]4C3)[nH]c2c1 | -16% | 2.39 |
| CCN(CCO)C(=O)NCC1CCCC1 | 0% | 0.04 |
| O=C(Nc1ccc2[nH]c(=O)[nH]c2c1)c1ccc(-c2ccccc2F)o1 | -5% | 0.4 |
| N#CC1COCCN1C(=O)C1CCCN(C(=O)NC2CCCC2)C1 (stereo unspecified) | -13% | 2.03 |
| O=C(NC(=O)c1cccs1)Nc1ccc(OC(F)(F)Cl)cc1 | 1% | -0.1 |
| Cc1ccc2oc(-c3nc(CC(C)C)no3)cc2n1 | -17% | 1.87 |
| Cc1ccccc1OC1CN(C(=O)[C@H]2CC(=O)N(c3cccc(O)c3)C2)C1 | 4% | -0.4 |
| COC(=O)C1CCN(C(=O)N[C@H]2CC(=O)N(c3ccc4c(c3)OCCO4)C2)CC1 | 13% | -1.66 |
| CC(N)C1CCCN(C(=O)C2CCN(c3cc(Cl)ccc3Cl)C2=O)C1 (stereo unspecified) | -8% | 1.17 |
| O=C(Cc1cccs1)Nc1ccc(OCc2nnc(-c3ccccc3)o2)cc1 | -2% | 0.25 |
| COc1ccc(NC(=O)CN2CCc3c(c(=O)c4cc(C)ccc4n3C)C2)cc1 | -2% | 0.23 |
| CN(Cc1csc(C(C)(C)O)n1)C(=O)c1cn(C)nc1C1CCC1 | -10% | 1.29 |
| CC1CCC(NC(=O)c2ccc3c(c2)NC(=O)c2ccccc2N3)CC1 (stereo unspecified) | -2% | 0.46 |
| Cc1cccc(N(CC#N)CC(=O)N2CCCCC2)c1 | 1% | -0.15 |
| Cc1ncc(S(=O)(=O)NC(=O)c2cnn3c2C[C@@H](C)CC3)s1 | -7% | 1.09 |
| COc1ccc([C@@H](NC(=O)Nc2ccc3nn[nH]c(=O)c3c2)C(C)C)cc1OC | -6% | 0.82 |

| SMILES | % Inhibition | Z score |
| --- | --- | --- |
| CCCn1nccc1NC(=O)c1n[nH]c(C)c1C | -4% | 0.46 |
| COc1cccc(-c2cc(C(=O)N(CCc3ccccc3)Cc3ccccc3)nc3cc(C(C)(C)C)nn23)c1 | 6% | -1.11 |
| CCO[C@@H](C)c1noc(CNC(=O)N(C)C2CC2)n1 | 4% | -0.49 |
| COC(=O)[C@H](C)N(Cc1cncs1)C1CCC1 | 8% | -1.12 |
| CC(Cc1ccsc1)N1CCN(CC(=O)N2CCCCC2C)CC1 (stereo unspecified) | -5% | 0.53 |
| Cc1ccc(Cn2c(=O)n(CCNC(=O)CC(C)C)c3ncccc32)cc1 | 6% | -0.65 |
| CCOC(=O)C1CCCN(C(=O)C2CCN(c3ccccc3C)C2=O)C1 (stereo unspecified) | -16% | 1.52 |
| CC1(C(=O)N[C@H]2C[C@H](c3ccc(F)cc3)C2)COC1 | -12% | 2.19 |
| C[C@@H](CCO)Nc1ncc(Cl)cc1Cl | 5% | -0.79 |
| Cc1nc(CNC(=O)[C@H]2CCC(=O)N(C3CCCCCC3)C2)n[nH]1 | 2% | -0.37 |
| CS(=O)(=O)N[C@H]1CCN(CC#Cc2ccc(F)cc2)C1 | 0% | 0.02 |
| Cc1c(N[C@H](c2ccccc2O)c2c(C)n(C)n(-c3ccccc3)c2=O)c(=O)n(-c2ccccc2)n1C | 14% | -2.12 |
| COc1ccc(CCN=C(N(C)C)N(C)C)c(F)c1 | -21% | 2.14 |
| CC(C)C(NC(=O)C1CCCCC(=O)N1)C1(CO)CCC1 (stereo unspecified) | -16% | 1.66 |
| Cc1ccc(C(=O)C(=O)NC2CCCC2)cc1 | 4% | -0.52 |
| Cc1nc2ccc(CNS(=O)(=O)N3CCCC3)cc2[nH]1 | 6% | -0.84 |
| Cc1nc(C)n(CCCNC(=O)c2cccc(-c3ccc(=O)[nH]c3)c2)n1 | -7% | 1.12 |
| COc1cc(-c2ccno2)ccc1S(=O)(=O)NCc1ccc(C)o1 | -10% | 1.7 |
| COc1ccc(-c2cc(N3CC[C@H](NC(=O)c4ccc(F)c(F)c4)C3)[nH]n2)cc1 | -10% | 1.02 |
| CCC[C@H](C)c1nc(N2CCCN(C(=O)C(C)(C)C)CC2)c2c(C)nn(-c3ccc(F)cc3)c2n1 | 2% | -0.26 |
| O=C(OCCOCC(F)(F)F)c1ccnc(C2CC2)n1 | -7% | 0.88 |

| SMILES | % Inhibition | Z score |
| --- | --- | --- |
| Cc1cnc(C(=O)N2CCC(F)(c3ccccc3Cl)CC2)cn1 | -11% | 1.28 |
| COC(C)(C)CCNC(=O)CC[C@H](C)N1CCN(C)CC1 | 1% | -0.15 |
| O=C(CCc1nc2ccccc2s1)N1CCC2(CC1)C[C@@H](N1CCOCC1)CCO2 | -10% | 1.29 |
| CC(C)c1cc(C(=O)N[C@H]2CCCOc3c(Cl)cccc32)nn1C | -7% | 1.39 |
| O=c1[nH]nc2ccc(N3CCC4(CCCCC4)C3)nn12 | 6% | -0.56 |
| COc1cccc(C(=O)N2[C@H](C(=O)NC3CC3)COC23CCN(C(=O)c2cccc(F)c2)CC3)c1 | 3% | -0.42 |
| FC(F)(F)c1n[nH]c2nc3ccc(Br)cc3c(-c3ccccc3)c12 | -3% | 0.47 |
| CCN(Cc1ccccc1)c1ccc(C(=O)O)cc1NS(=O)(=O)c1cc(C)c(C)cc1C | -15% | 1.45 |
| Cc1ccc2c(Cl)c(C(=O)N(Cc3cccc(Cl)c3)[C@H]3CCS(=O)(=O)C3)sc2c1 | -2% | 0.17 |
| CCc1ccc([C@@H]2COCCN2c2ncnc3[nH]ncc23)o1 | -37% | 4.31 |
| CC(C)(CNC(=O)c1cc(=O)[nH]c(C2CC2)n1)c1ccccc1F | -6% | 0.74 |
| CC(C)c1nnc(C2CCN(C(=O)c3c[nH]c4ccccc34)CC2)o1 | 11% | -1.46 |
| COc1ccc(NC(=O)c2nnc(C3CCN(C(=O)NCc4ccco4)CC3)s2)cc1 | -19% | 1.74 |
| CCNC(=O)[C@@H]1CC[C@](C)(C(=O)NCCc2nnc(N)s2)C1(C)C | -1% | 0.2 |
| NC(=O)c1ccc(N2CC3CC=CCC3C2)nn1 (stereo unspecified) | -5% | 0.68 |
| N#CCN(CC#N)C(=O)c1ccc(Cl)cc1F | 0% | 0.03 |
| c1ccc(-c2noc(Cc3cccc4ccccc34)n2)nc1 | -9% | 1.28 |
| C[C@@H]1[C@H](C(=O)NCCn2ccnn2)CCCN1C(=O)OC(C)(C)C | -15% | 2.06 |
| CC(C)Cc1nc2c(Br)cc(Br)cn2c1NC1CCCCC1 | -16% | 1.6 |
| Cc1cccc(CN2[C@H](CNS(=O)(=O)c3ccccc3)CN(C)C(=O)[C@@H]2C)c1 | -6% | 0.85 |
| COc1cccc(C(=O)NC[C@H]2Cn3cccc3CN2Cc2ccccc2)c1 | 1% | -0.17 |

| SMILES | % Inhibition | Z score |
| --- | --- | --- |
| Cc1cc(C(=O)N2Cc3c(C(=O)NC4CC4)nn(C)c3C2)no1 | -4% | 0.52 |
| Cc1nn(CCCNc2cc([C@H]3CCOC3)nc(N)n2)c(C)c1Cl | -5% | 0.72 |
| COc1ccccc1CCC(=O)N1CC(N2C[C@H](CO)NC2=O)C1 | -4% | 0.44 |
| O=C1CCC2(CCN(C(=O)c3ccccc3F)CC2)CN1CCc1c[nH]cn1 | -4% | 0.66 |
| CCc1nnc(CN(C)Cc2[nH]cc(C)c(=O)c2C)o1 | -7% | 0.68 |
| O=C(O)C1C2C=CC(CC2)C1C(=O)N1CCN(c2ccccc2F)CC1 (stereo unspecified) | -20% | 2.31 |
| COc1ccccc1C1(CNC(=O)c2sc(C)nc2C)CCOCC1 | -5% | 0.6 |
| COc1ccc(C)cc1/N=C(\NC[C@H]1CCCO1)NC(=O)c1cccc(C)c1 | -15% | 1.35 |
| COC(=O)c1cc(-c2cnn(C)c2)on1 | -32% | 3.78 |
| Cc1ncc(CO)c(CN2CCOC[C@@H]2CC(=O)NCc2cccnc2)c1O | -4% | 0.73 |
| CC1C(C)[S+]([O-])CCN1Cc1nc(N)nc(N(C)C)n1 (stereo unspecified) | 11% | -2.07 |
| Cc1cnccc1CN(C)C(=O)Cc1ccncc1 | 5% | -0.66 |
| COCC1(C(=O)N2CCN(c3ccc(F)c(Cl)c3)CC2)CCC1 | -25% | 2.46 |
| Cc1nocc1NC(=O)N1CCN(c2ncnc3sccc23)CC1 | -19% | 2.23 |
| O=C(c1cc(S(=O)(=O)N2CCCC2)c[nH]1)N1CCCCCC1 | -13% | 1.29 |
| CCN(Cc1cn(C)nc1C)C(=O)c1cn2c(n1)C(=O)N(Cc1ccccc1)CC2 | -12% | 1.62 |
| CCCN1CCN(S(C)(=O)=O)c2cc(F)ccc21 | -3% | 0.43 |
| Cc1occc1C(=O)N1CC[C@@]2(CCCN(CC3CCCCC3)C2=O)C1 | -8% | 1.07 |
| O=C(O)C1CCC(C(=O)N2CCC[C@H]2c2cc(F)cc(Br)c2)CC1 (stereo partly specified) | -29% | 3.37 |
| O=C(NCCc1ccc2c(c1)OCCO2)c1ccsc1 | -17% | 1.63 |
